Measurements: the supplement of paper PMC3334620
The full ranking holds about 33,000 sequences; the median of “E-score (-0.5 to 0.5)” is about -0.054, and the highest 2% start at about 0.35. Some of the results follow.

target: T1, Stb5 (UniProt P38699); assay: PBM E-score (8-mer binding enrichment) (E-score (-0.5 to 0.5)); higher = stronger / more preferred TF binding; most listed sequences are background and not binding sites; conditions: protein concentration: 200 nM; construct: GST-full length
T1 sequence: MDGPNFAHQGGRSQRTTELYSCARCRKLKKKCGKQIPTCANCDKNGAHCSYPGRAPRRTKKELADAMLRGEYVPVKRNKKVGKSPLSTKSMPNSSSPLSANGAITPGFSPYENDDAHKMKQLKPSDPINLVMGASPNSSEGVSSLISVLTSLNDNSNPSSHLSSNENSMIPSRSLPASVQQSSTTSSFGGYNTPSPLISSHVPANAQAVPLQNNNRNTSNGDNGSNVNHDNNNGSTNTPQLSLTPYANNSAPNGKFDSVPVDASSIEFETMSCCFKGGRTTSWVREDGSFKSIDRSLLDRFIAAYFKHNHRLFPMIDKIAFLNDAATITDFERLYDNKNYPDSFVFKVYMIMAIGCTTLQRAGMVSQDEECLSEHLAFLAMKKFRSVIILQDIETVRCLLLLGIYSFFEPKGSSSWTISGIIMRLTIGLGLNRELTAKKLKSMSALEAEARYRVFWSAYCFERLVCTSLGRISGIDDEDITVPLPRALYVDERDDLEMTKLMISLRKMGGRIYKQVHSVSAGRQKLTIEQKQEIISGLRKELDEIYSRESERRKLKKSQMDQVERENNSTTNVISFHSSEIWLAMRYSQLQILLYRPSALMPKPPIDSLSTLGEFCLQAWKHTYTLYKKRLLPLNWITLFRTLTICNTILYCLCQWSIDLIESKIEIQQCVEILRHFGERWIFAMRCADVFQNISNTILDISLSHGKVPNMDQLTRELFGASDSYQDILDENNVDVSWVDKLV
Method in brief: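 Yeast transcription factors carrying a GST tag, as full-length proteins or DNA-binding domains, were produced by PURExpress in vitro transcription/translation. About 100-200 nM protein was applied to universal all-10-mer Agilent arrays, double-stranded by primer extension on fresh or once-stripped slides. Bound protein was detected with fluorescent anti-GST, and scans were normalised with masliner. The Universal PBM Analysis Suite gave each ungapped eight-base word, pooled with its reverse complement, an E-score, a modified Wilcoxon-Mann-Whitney statistic.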

Row | Sequence | PBM E-score
1 | GTACCCCA | -0.121
2 | CTACGTCC | 0.226
3 | ACATTACC | 0.119
4 | ATTTAAGA | -0.173
5 | ACGTAGCC | -0.129
6 | ATTAGCCA | -0.337
7 | CCGGGGAC | 0.202
8 | GTCTATCA | -0.0088
9 | ACATGATA | -0.0498
10 | ACCTCGAA | -0.122
11 | ACAGGAAA | -0.0972
12 | ACCGGAAG | 0.181
13 | AGAGCTAT | -0.195
14 | GTCTACAC | 0.0371
15 | CATCCCTA | -0.158
16 | CCTACTGC | -0.271
17 | AACTAACA | 0.0185
18 | GTCAGTAA | -0.0707
19 | AATATCCG | 0.39
20 | AGTAACCA | -0.146
21 | AACCACTC | -0.138
22 | AAGCATCT | -0.189
23 | CGAGCGAC | -0.15
24 | CCCTATCA | -0.21
25 | ACAATTGT | -0.239

Row | Sequence | PBM E-score
26 | ACCTATGA | -0.124
27 | AAGTAGGG | -0.236
28 | CAACCTAC | -0.0287
29 | AACTGGGC | -0.0587
30 | AGGGCCGG | 0.271
31 | AACTTTTC | -0.103
32 | GGGACGCA | -0.134
33 | AACATCCC | 0.149
34 | CAGTATTA | -0.141
35 | ACGAGAAT | 0.00633
36 | CGCACTAG | -0.162
37 | CTATCCCC | 0.276
38 | AATTGACC | 0.174
39 | CAGGACGA | -0.0341
40 | AGGTTCCC | -0.226
41 | CGCTCTAG | 0.131
42 | AAACTGCA | -0.273
43 | CTCTGTAA | -0.0939
44 | GCTTCCGA | 0.0339
45 | ATATGGTG | 0.0157
46 | CCAACTTC | -0.242
47 | GACCAGTA | -0.164
48 | GTGAATTA | -0.147
49 | ACCCCCAG | -0.249
50 | AGCTTCCA | -0.186

Row | Sequence | PBM E-score
51 | CTTAGAGC | 0.0404
52 | ACAGAGGT | -0.243
53 | GGGTGGTA | -0.0756
54 | CGTTGAAC | 0.0757
55 | AGCGATAA | 0.141
56 | CGTAACAC | 0.132
57 | ACAGGCCT | -0.206
58 | GACCACGC | -0.186
59 | CCACACGC | -0.0412
60 | TCTCGCCA | -0.0843
61 | CGTTGTTC | 0.0333
62 | CAAGTAAA | 0.123
63 | ACCTGGTC | 0.138
64 | CGTGCTAC | 0.0172
65 | CTGGTAGA | 0.0406
66 | ACAATTTC | 0.00176
67 | CATTCGGA | 0.146
68 | CCATCCAA | -0.242
69 | CGGGGTAA | 0.424
70 | ATCTGCCG | 0.287
71 | CTCGTGAC | -0.163
72 | ACGACCAA | -0.186
73 | ACACTTCG | -0.128
74 | CACAGAGG | -0.166
75 | GGACCTAC | 0.239

Row | Sequence | PBM E-score
76 | CCTGGCCG | -0.135
77 | AAATTTCT | -0.262
78 | CCTATGCA | -0.158
79 | AGGTAATG | -0.0324
80 | GCTTGGAA | -0.213
81 | AATTTAAA | 0.056
82 | ACACGTAC | -0.258
83 | CAACGGTC | 0.191
84 | AGAGGCGA | -0.261
85 | AGAGGCAA | -0.228
86 | GCCCCATA | 0.0184
87 | ACCTTCTA | -0.207
88 | GGAGGCCA | -0.138
89 | GAGCAATC | -0.0555
90 | CCTACGCG | 0.015
91 | AGTGCTCG | -0.311
92 | GCTAGGAA | -0.191
93 | CCAACAGA | -0.173
94 | CACCTACC | 0.0372
95 | CAGAAAAA | -0.17
96 | CATTCTAG | -0.236
97 | GGGCTAAA | 0.266
98 | ATCTCGAG | -0.131
99 | CGGGTTTA | 0.467
100 | AGCGGGGA | 0.375

Row | Sequence | PBM E-score
101 | ACACCGCT | 0.419
102 | ACAGAGGC | -0.0371
103 | ATAAGTAC | 0.133
104 | CCAAGGCG | 0.117
105 | ATTAAGGG | -0.0544
106 | GACACCGC | 0.454
107 | CGTTTTTC | 0.0114
108 | CCGCAGAC | 0.165
109 | AAGAAGGA | -0.255
110 | TGAGTGCA | -0.0559
111 | AAGGATAT | 0.0815
112 | GAGTCAAC | -0.114
113 | CCCGCAAG | 0.0585
114 | ACACCGCA | 0.44
115 | AACACCCG | 0.306
116 | AATTTTTA | 0.0864
117 | AATTAGGA | -0.0648
118 | CGCTTTAC | 0.0821
119 | GCCAAGGA | -0.0748
120 | AACGGGGA | 0.288
121 | CGCGGACA | 0.315
122 | CGTGTTTA | 0.112
123 | GCCTGCGA | -0.155
124 | TCATCCAA | -0.191
125 | AATGAACT | -0.158

Row | Sequence | PBM E-score
126 | GCAATTGA | -0.0107
127 | GCGGGAGA | 0.0756
128 | CTGTTAGC | -0.204
129 | ACTAAATC | 0.104
130 | CACACGGC | 0.17
131 | AAAGATGA | -0.0816
132 | CAGTATAG | -0.095
133 | AGATTGAG | -0.181
134 | GGAAGTGA | -0.00876
135 | CAATCACC | 0.254
136 | AAGATGAC | -0.255
137 | CGCGCGCC | 0.184
138 | CAAAACGC | 0.145
139 | CCGAACGA | 0.147
140 | GGGAAACA | 0.0246
141 | ATTTTTTA | 0.0317
142 | AATGTATG | -0.0396
143 | AGCCCGCG | 0.334
144 | TGTCGGAA | 0.26
145 | GATCGCCA | -0.0139
146 | GACCGGAA | 0.21
147 | CATCCATG | -0.205
148 | CAAACGAC | -0.149
149 | AGGGCGAA | -0.0668
150 | AAAGCGTG | -0.198

Row | Sequence | PBM E-score
151 | CCTGAGGC | -0.0476
152 | CCAGCCCA | -0.0866
153 | CACTCTTA | -0.179
154 | GACACCTC | -0.0935
155 | CTTGAAAC | 0.0595
156 | GCGTGTCA | 0.0804
157 | GCCCGGGC | 0.224
158 | ACTCCAGA | -0.267
159 | CTTCGACA | -0.252
160 | ACTAGTAG | 0.0429
161 | AGAACGAT | -0.324
162 | ATGCGCAC | -0.0251
163 | CGGAATAC | 0.077
164 | AGGTCTCA | 0.0073
165 | ATCGTACA | -0.121
166 | AGGAAGAG | -0.222
167 | CATCCTAG | -0.116
168 | ACACTCTA | -0.161
169 | ACGGAGAG | 0.115
170 | TACTAAAA | 0.0255
171 | TCCTCACA | -0.0217
172 | ACCCGTCT | 0.0605
